# In article PMC6212790:
# The other results are listed elsewhere or left out. At the low end of the ranking the order means little.
# Molecular target: T1, GST-Rok-C97-191 (UniProt O34857)
# T1 sequence: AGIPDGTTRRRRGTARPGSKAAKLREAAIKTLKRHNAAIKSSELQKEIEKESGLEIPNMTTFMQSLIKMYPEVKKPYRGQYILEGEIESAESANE
# Assay: protein binding microarray;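 note: rank score from −0.5 (least bound) to 0.5 (best bound)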
# Conditions: Rok is a gene silencer of Bacillus subtilis; high values mean tight binding; most listed sequences are background and not binding sites; double strand, one strand shown
row,Sequence,binding signal
1,AGGTCCGA,-0.0779 E-score
2,GAAACATC,-0.124 E-score
3,ACATATCA,0.168 E-score
4,CAAAGTCG,-0.0351 E-score
5,ATAAAGTG,-0.151 E-score
6,CGTAAATA,0.254 E-score
7,GACACCAC,-0.0899 E-score
8,CCTGCTCG,-0.226 E-score
9,ACTTTGAT,-0.0076 E-score
10,AGAGGGGA,-0.215 E-score
11,TAGATTAA,0.268 E-score
12,AGTACAGA,-0.062 E-score
13,AGAGAGTC,-0.251 E-score
14,TAACTATA,0.347 E-score
15,CTCCGGCA,-0.0967 E-score
16,ATCCGTCA,-0.0325 E-score
17,ACCGTTGC,0.0436 E-score
18,GCAGCTCA,-0.0554 E-score
19,CCTTCACC,-0.118 E-score
20,CACACACG,-0.0575 E-score
21,CTAACCAC,-0.163 E-score
22,CACATTTA,0.195 E-score
23,CAGACCTA,0.0329 E-score
24,CCTTCTAA,-0.14 E-score
25,GAACGGAA,-0.204 E-score

row,Sequence,binding signal
1,ATCAAGCA,0.00395 E-score
2,GTCAAGGA,-0.129 E-score
3,CCGGTGGA,-0.145 E-score
4,AACTGAGA,-0.1 E-score
5,GGAGGCGA,-0.221 E-score
6,GCAAGGCC,-0.283 E-score
7,GGATATCA,0.125 E-score
8,GGGAGACC,-0.227 E-score
9,ATTTTTGC,-0.0684 E-score
10,GACTACAA,-0.00391 E-score
11,AGTTAACA,0.122 E-score
12,CGCCTATC,-0.0928 E-score
13,CGTAGGCA,-0.0837 E-score
14,AGTTGATC,0.09 E-score
15,AGGATGAT,-0.0352 E-score
16,CCGCGGCG,-0.231 E-score
17,CAGGTGCC,-0.177 E-score
18,AAGCTTTC,-0.103 E-score
19,AACGGAGT,-0.111 E-score
20,TATATTCA,0.264 E-score
21,AGTTTTAC,0.292 E-score
22,AGGGGAGA,-0.228 E-score
23,AGCTTAGA,-0.069 E-score
24,CAACGATA,0.206 E-score
25,CATGCGTC,0.00833 E-score

row,Sequence,binding signal
1,AGATCTTC,0.0644 E-score
2,AGTTGCAC,0.09 E-score
3,CGTGATTC,-0.0211 E-score
4,GGAATCCA,-0.132 E-score
5,AGTCTCGC,-0.0929 E-score
6,CGTCCCAA,-0.181 E-score
7,ATGCTCCC,-0.193 E-score
8,GGTCTACA,0.0204 E-score
9,CTCTGACA,-0.113 E-score
10,CGCTCCCC,-0.266 E-score
11,GAGGGCAA,-0.328 E-score
12,ACCTCTAA,-0.0561 E-score
13,CGACCACG,-0.251 E-score
14,CAGAGCAC,-0.219 E-score
15,GCCCCATA,0.111 E-score
16,TACGCAAA,0.196 E-score
17,CGCTCGTC,-0.243 E-score
18,AACCGGAG,-0.22 E-score
19,ACGATAAT,0.15 E-score
20,ATTCGATA,0.205 E-score
21,AGTAAATC,0.215 E-score
22,ACAGACAC,-0.0243 E-score
23,ATCACAGA,-0.0434 E-score
24,ACTACGTA,0.277 E-score
25,TCGGGCCA,-0.12 E-score

row,Sequence,binding signal
1,ATCTTGCC,-0.00252 E-score
2,CACAAGAG,-0.00599 E-score
3,GTTGATAA,0.0851 E-score
4,ATTTATTA,0.306 E-score
5,CGAGCGCC,-0.388 E-score
6,CATGAGAA,0.219 E-score
7,CCTGTTAA,-0.159 E-score
8,CCCAGAAG,-0.158 E-score
9,CCCCTAAG,-0.26 E-score
10,GCGATCAC,0.00148 E-score
11,GGTGAAAC,-0.0397 E-score
12,AGTAAAAT,0.329 E-score
13,ATGACTAA,0.151 E-score
14,GAATGCCC,-0.13 E-score
15,ACCCCAGA,-0.19 E-score
16,TCGATCCA,-0.0554 E-score
17,ACCTTCAG,-0.101 E-score
18,CAACCTGA,-0.0116 E-score
19,TCCACGGA,-0.157 E-score
20,GTACACTA,0.196 E-score
21,ATTAACGA,0.166 E-score
22,TCCCCACA,-0.206 E-score
23,CAGTAATG,-0.0082 E-score
24,ATGTATCA,0.301 E-score
25,GTCTCTAA,-0.0333 E-score

row,Sequence,binding signal
1,CTCGCTCC,-0.141 E-score
2,ATCCCGAT,0.0988 E-score
3,TGGCATAA,0.0295 E-score
4,CTCTCTGA,-0.168 E-score
5,ACCGGGCG,-0.311 E-score
6,ACTTTATG,0.0912 E-score
7,AATTCCGG,-0.0116 E-score
8,CATTATAG,0.147 E-score
9,CGCGGAGC,-0.178 E-score
10,CCAATCCG,-0.045 E-score
11,AGGCATGC,-0.15 E-score
12,CATTCTCG,-0.101 E-score
13,AGAGTCCC,-0.226 E-score
14,CATAAGAG,-0.00754 E-score
15,AAGGCTCT,-0.246 E-score
16,ATTACTTG,0.121 E-score
17,AGTGAATG,-0.088 E-score
18,GTTCAAGA,-0.149 E-score
19,GTCCAGAC,-0.154 E-score
20,ATCTCATC,0.161 E-score
21,CCTAACTA,0.225 E-score
22,AATGAAAG,-0.0213 E-score
23,CTCCGGCC,-0.148 E-score
24,ATACGGCA,0.169 E-score
25,ACGCAGAT,-0.0111 E-score

row,Sequence,binding signal
1,CTCTTACC,-0.0309 E-score
2,GACCCGGA,-0.052 E-score
3,ACTACGCT,0.162 E-score
4,ATACTAAA,0.39 E-score
5,AGTTCCTG,0.0183 E-score
6,ATATATGC,0.256 E-score
7,CGGTAGGA,0.277 E-score
8,GAATACAC,0.109 E-score
9,GGGCCTAA,-0.138 E-score
10,CCAGAGTC,-0.212 E-score
11,CTTGCAAC,-0.0134 E-score
12,TAATAACA,0.191 E-score
13,ATTTTGGG,0.0112 E-score
14,GCTGGGCA,-0.293 E-score
15,GTGGAAGA,-0.235 E-score
16,GCGGCCCC,-0.45 E-score
17,ACATTATC,0.238 E-score
18,CAATGCTG,-0.134 E-score
19,AACGTACA,0.0722 E-score
20,CCCTTGTC,-0.256 E-score
21,TAGGCACA,0.0797 E-score
22,GCCTCCCC,-0.175 E-score
23,ATACTGAC,0.0391 E-score
24,AATTCCGC,0.167 E-score
25,GACTCACA,-0.000705 E-score

row,Sequence,binding signal
1,ACCGCCTC,-0.191 E-score
2,GAGCAGGC,-0.0284 E-score
3,AGGTTTAT,0.00738 E-score
4,GGCGCCCC,-0.295 E-score
5,CCCTGAGG,-0.336 E-score
6,GGTGAAAA,-0.1 E-score
7,CGCATCTC,-0.104 E-score
8,TCCTTCCA,-0.231 E-score
9,CACCGAAA,0.0566 E-score
10,ACAAGATC,0.0358 E-score
11,TCACGTCA,-0.0289 E-score
12,GTCCTCAA,-0.017 E-score
13,GAGACGGC,-0.336 E-score
14,CAGTTATA,0.187 E-score
15,AGGGCAAC,-0.147 E-score
16,CTCCAACC,-0.249 E-score
17,ATCCTATG,0.116 E-score
18,CAGCAATG,-0.023 E-score
19,ATAAAGCA,-0.0166 E-score
20,GTGTGGCA,-0.171 E-score
21,AGGCACAG,0.00583 E-score
22,CCATCCTC,-0.12 E-score
